Test results as given in PMC4336329 (PLoS ONE, 2015).
Among all 310,000 compounds or so, about 14,000 (4.5%) showed an effect of 50% or more. Effects have a minus sign here. Some of the results follow.

Each compound was assayed against human ether-à-go-go-related gene (hERG) potassium channel (human, UniProt Q12809) (assay: primary screen, population patch clamp on CHO cells stably expressing hERG).
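Also: peak tail current of the secondary pulse compared with the same well before compound.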

Chain of human ether-à-go-go-related gene (hERG) potassium channel (Q12809 whole entry, looked up): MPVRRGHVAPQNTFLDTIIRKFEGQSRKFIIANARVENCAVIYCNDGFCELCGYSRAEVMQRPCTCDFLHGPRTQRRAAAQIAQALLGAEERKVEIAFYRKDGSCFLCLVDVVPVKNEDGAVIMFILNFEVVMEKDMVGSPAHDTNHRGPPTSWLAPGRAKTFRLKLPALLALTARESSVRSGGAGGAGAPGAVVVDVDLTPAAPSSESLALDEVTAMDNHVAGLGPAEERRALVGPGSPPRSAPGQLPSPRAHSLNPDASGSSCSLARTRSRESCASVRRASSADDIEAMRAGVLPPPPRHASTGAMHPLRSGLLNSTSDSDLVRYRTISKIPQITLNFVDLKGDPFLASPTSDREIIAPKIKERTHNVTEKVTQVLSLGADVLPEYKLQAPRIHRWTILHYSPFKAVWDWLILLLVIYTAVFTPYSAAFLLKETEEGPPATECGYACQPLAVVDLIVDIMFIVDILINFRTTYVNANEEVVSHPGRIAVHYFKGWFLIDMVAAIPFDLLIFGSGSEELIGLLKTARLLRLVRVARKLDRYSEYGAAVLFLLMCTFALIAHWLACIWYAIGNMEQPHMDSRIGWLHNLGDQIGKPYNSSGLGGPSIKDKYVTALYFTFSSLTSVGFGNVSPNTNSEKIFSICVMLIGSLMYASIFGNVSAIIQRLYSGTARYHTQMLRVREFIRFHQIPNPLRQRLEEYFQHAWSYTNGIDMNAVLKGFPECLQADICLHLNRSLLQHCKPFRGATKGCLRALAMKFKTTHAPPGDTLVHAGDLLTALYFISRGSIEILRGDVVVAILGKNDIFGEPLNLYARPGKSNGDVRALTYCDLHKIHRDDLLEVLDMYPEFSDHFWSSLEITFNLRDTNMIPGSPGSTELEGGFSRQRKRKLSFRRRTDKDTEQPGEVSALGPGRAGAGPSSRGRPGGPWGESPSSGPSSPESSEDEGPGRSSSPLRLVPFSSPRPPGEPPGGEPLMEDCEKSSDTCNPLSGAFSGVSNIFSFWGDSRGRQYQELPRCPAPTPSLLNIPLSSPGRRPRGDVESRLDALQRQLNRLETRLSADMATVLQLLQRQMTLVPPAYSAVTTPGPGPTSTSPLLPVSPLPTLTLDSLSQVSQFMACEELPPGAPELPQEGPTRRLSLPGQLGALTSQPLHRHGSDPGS

Row | SMILES | hERG current change (%, negative = inhibition) at 10uM [%]
1 | CCOC(=O)CC1=C(C(=O)OCC)C2(C(=O)N1)C(C(=O)OC)=C(N)Oc1ccccc12 (stereo not drawn) | -7.95
2 | O=C(OCC(=O)N1CCCC1)c1ccc(S(=O)(=O)N2CCOCC2)cc1 | 15.7
3 | NC(=S)N/N=C/c1ccc2ccccc2c1 | 18.1
4 | CCOCCOC(=O)c1[nH]c2c(c1C)C(=O)CC(c1ccccc1)C2 (stereo not drawn) | 7.35
5 | CC(=O)OCC1=C(C(=O)O)N2C(=O)C(NC(=O)c3ccc(COc4ccc(Cl)cc4)o3)C2SC1 (stereo not drawn) | -12
6 | NC(N)=NS(=O)(=O)c1ccc(NC(=S)NC(=O)Cc2ccc(Cl)cc2)cc1 | 28.8
7 | S=C(NCc1ccco1)N1CCC(c2nc3ccccc3o2)CC1 | -21
8 | CCCCN1CC(=O)N2[C@H]3c4ccc(OC)cc4OC[C@@H]3[C@H](c3ccccc3)[C@]2(C)C1=O | -8.54
9 | COc1ccc(NC(=O)C2C3CCC(O3)C2C(=O)O)c(OC)c1 (stereo not drawn) | 23.1
10 | CCc1nc2c(C#N)c(-c3ccc(Cl)cc3)ccn2n1 | -16.6
11 | Cc1ccccc1NC(=O)C1Cc2ccccc2CN1C(=O)OCc1ccccc1 (stereo not drawn) | -31.2
12 | COc1ccc(-c2n[nH]c(=S)n2-c2ccc3c(c2)OCCO3)cc1 | 7.68
13 | CCOc1ccc(N2C(=O)Nc3ccccc3C2(O)C(=O)NCc2ccco2)cc1 (stereo not drawn) | -3.71
14 | Cc1ccc(S(=O)(=O)n2c(N)nc3ccccc32)cc1 | 10.1
15 | N#C/C(=C/c1ccc(N2CCOCC2)o1)c1ccc(Cl)cc1 | 0.0249
16 | O=c1c2cnn(-c3ccccc3)c2ncn1Cc1ccccn1 | 3.09
17 | O=C(NCCCCCCNC(=O)OC1CCS(=O)(=O)C1)OC1CCS(=O)(=O)C1 (stereo not drawn) | 11
18 | CC1=C(C(=O)OC(C)C)C(c2ccccn2)n2ncnc2N1 (stereo not drawn) | 1.52
19 | COc1cccc(NC(=O)COc2ccc(Br)c(C)c2)c1 | 25.8
20 | CN(Cc1ccc(F)cc1)S(=O)(=O)c1nnc(NC(=O)c2ccccc2Br)s1 | -15.9
21 | COC(=O)CNC(=O)c1cn(CC(C)C)c(=O)c2cc(OC)c(OC)cc12 | -9.4
22 | COc1ccccc1C(=O)Nc1ccccc1N1CCCCC1 | -22.4

Row | SMILES | hERG current change (%, negative = inhibition) at 10uM [%]
23 | CC(C)(C)C1CCc2[nH]nc(C(=O)O)c2C1 (stereo not drawn) | 16
24 | CCN(CC)CC(=O)c1c[nH]c2ccccc12 | 3.05
25 | CCCN(Cc1cc2cc(OC)ccc2[nH]c1=O)C(=O)c1ccco1 | -19.5
26 | CCOc1ccc(OCCCCN2CCCC2)cc1.O=C(O)C(=O)O | -12.2
27 | CN(C(=O)CSC(=O)c1ccccc1)c1ccccc1 | 30.9
28 | Cc1ccc(-n2c(COc3cccc(C)c3)n[nH]c2=S)cc1 | -3.28
29 | O=C(Nc1cccc(-c2ccc3nncn3n2)c1)c1ccco1 | -10.1
30 | CCCC(=O)C1=C(O)C(C(=O)OC)C(C)(C)CC1=N (stereo not drawn) | 19.9
31 | O=C(Nc1ccc(N2CCCCC2)c(Cl)c1)c1ccc(N2CCOCC2)c([N+](=O)[O-])c1 | 8.11
32 | COc1ccc(NC(=S)NC(=O)/C=C/c2cccs2)cc1 | -2.84
33 | CCn1ccnc1CN1CCC(n2nccc2NC(=O)CCc2ccccc2)CC1 | -3.91
34 | O=C(NCCN1C(=O)S/C(=C\c2cccnc2)C1=O)c1cccc(OC(F)F)c1 | -48.7
35 | CSc1nc(-c2ccco2)nn1C(=O)c1ccccc1 | 22.6
36 | COc1ccc(CN2CCN(C(=O)c3ccco3)CC2)cc1OC.O=C(O)C(=O)O | 16.8
37 | COc1ccccc1NS(=O)(=O)c1cccc(C(=O)NCC2(N(C)C)CCCCC2)c1 | -22.2
38 | CN1CCN(C(=O)CCN2C(=O)/C(=C/c3cccc(Br)c3)SC2=S)CC1 | 11.4
39 | Cc1cc(C)n2nc(SCC(N)=O)nc2n1 | 16.2
40 | COc1ccc(CN2C(=O)c3ccc(C(=O)O)cc3C2=O)cc1 | 11.7
41 | CNC(=O)[C@@]1(Cc2ccccc2)C=C[C@@H](C)N1C(=O)OC | 4.08
42 | O=C(NCc1ccccc1)C(c1ccccc1)N(Cc1ccc2c(c1)OCO2)C(=O)Cc1cccs1 (stereo not drawn) | 3.28
43 | O=C(CCN1C(=O)c2ccccc2C1=O)Nn1cnnc1 | -0.368
44 | C=CCN1C(=O)CN=C1Nc1cc(C)ccc1C.Cl | -2.72

Row | SMILES | hERG current change (%, negative = inhibition) at 10uM [%]
45 | CCOc1ccc(CCNC(=O)c2ccc(N3CCCC3=O)cc2)cc1OCC | 11
46 | Cc1cc[n+](CC(=O)Nc2cccc(C)c2)cc1.[Cl-] | 6.68
47 | COc1ccc(N2CCN(C(=O)c3ccc(Oc4ccc(C(F)(F)F)cn4)cc3)CC2)cc1 | -19.3
48 | CCOC(=O)c1cccc(NC(=O)c2ccc(N(C)C)cc2)c1 | -23.5
49 | CCCCC1C2=C(CC(C)(C)CC2=O)OC2=C1C(=O)CC(C)(C)C2 | -9.48
50 | COc1ccc(CCNC(=O)C23CN(Cc4ccccc4)CC2C(c2cccc([N+](=O)[O-])c2)=NO3)cc1 (stereo not drawn) | -7.39
51 | CC(=O)N1CCCN(C(=O)c2ccc3nc(Cc4cccc(Cl)c4)oc3c2)CC1 | -6.76
52 | CSCCC(NC(=O)c1cc(CC(C)C)oc1C)C(=O)O (stereo not drawn) | 11.4
53 | COc1cc2ncnc(NCc3cccc(Cl)c3)c2cc1OC | -63.9
54 | COc1cccc(CN(C)C(=O)c2cc(S(=O)(=O)N3CCN(c4ccccc4)CC3)ccc2Cl)c1 | -6.89
55 | COc1ccc(/C=N/NC(=O)c2cccc([N+](=O)[O-])c2)cc1OC(=O)c1ccc(C)cc1 | 2.76
56 | CCOc1ccc(/C(O)=C2/C(=O)C(=O)N(c3ccccn3)C2c2ccc(Cl)cc2)c(C)c1 (stereo not drawn) | 15.4
57 | CC(C)CN1C(=O)c2ccc(NC(=O)c3ccco3)cc2C1=O | 16.8
58 | COC(=O)NCCOc1nc(N(C)C)nc(N(C)C)n1 | 20.9
59 | COc1cc(OC)cc(C2C(C#N)=C(N)Oc3n[nH]c(-c4cccnc4)c32)c1 (stereo not drawn) | 11.9
60 | CCOC(=O)c1[nH]c2ccc(OC)cc2c1NC(=O)CN1CCSCC1 | -14.5
61 | CC(=O)/C(=C/c1ccccc1)C(=O)Nc1ccccc1C | 13.5
62 | CC1CCN(C(=O)CNC(=O)c2ccc(Cl)cc2Cl)CC1 | -11.8
63 | CCOc1ccc(S(=O)(=O)N2CCC(C(=O)NCc3ccncc3)CC2)cc1C | -5.56
64 | O=C(N/N=C/c1ccccc1O)c1cccc(C(F)(F)F)c1 | -6.92
65 | Cc1[nH]c2ccccc2c1C(=O)CN1CC(C)CC(C)C1 (stereo not drawn) | 0.738
66 | CCOC(=O)C(O)(C1C(=O)CC(C)(C)CC1=O)C(F)(F)F (stereo not drawn) | 19.8

Row | SMILES | hERG current change (%, negative = inhibition) at 10uM [%]
67 | CCOc1ccc(N2C(=O)Nc3ccccc3C2(O)C(=O)NCc2ccc(F)cc2)cc1 (stereo not drawn) | 10.7
68 | COc1ccc(Cc2nnc(SCC(=O)c3ccc4c(c3)OCO4)o2)cc1 | -0.299
69 | Cc1nc(N2CCCCC2)c(C#N)c(C)c1[N+](=O)[O-] | 15.3
70 | Cc1cc(=O)oc2cc(OCCCN3C(=O)c4ccccc4C3=O)ccc12 | 10.4
71 | Cc1cc(C)n(-c2ccc(C(=O)Nc3cccc(S(=O)(=O)N4CCCC4)c3)cc2)n1.Cl | 23.8
72 | CCCCCCCCC(=O)NCCOc1ccccc1 | -1.7
73 | Cc1nn(-c2ccccc2)c2sc(C(=O)NCCN3CCOCC3)cc12 | -16.7
74 | Cc1ccc(/C(O)=C2\C(=O)C(=O)N(c3cc(C)on3)C2c2cccc(Cl)c2)cc1 (stereo not drawn) | 24.4
75 | CC(C)=CCOc1c2occc2cc2ccc(=O)oc12 | -17.9
76 | CNc1cc(N2CCN(S(=O)(=O)N(C)C)CC2)ccc1[N+](=O)[O-] | 15.7
77 | Cn1ncc(N=Cc2ccc([N+](=O)[O-])cc2)c1C(=O)Nc1ccccc1 | 19.3
78 | Cc1cc(C(=O)Cn2nc(C(=O)O)c3ccccc3c2=O)c(C)n1-c1ccc(OC(F)F)cc1 | 22.7
79 | O=C(COC(=O)/C=C/c1ccccc1[N+](=O)[O-])NC1CCS(=O)(=O)C1 (stereo not drawn) | 26.4
80 | COc1ccc(OC)c(-n2nnnc2SCC(=O)NCc2ccc3c(c2)OCO3)c1 | -36
81 | COc1cccc(-c2cc(C(=O)Nc3ccc([N+](=O)[O-])cn3)c3ccccc3n2)c1 | -42.9
82 | COCCSc1nnc(NC(=O)CS(=O)(=O)c2ccccc2)s1 | 18.4
83 | O=C(Cn1cc(S(=O)(=O)Cc2ccccc2)c2ccccc21)N1CCOCC1 | 9.85
84 | CC1CCN(CCCCOc2cccc(Br)c2)CC1.O=C(O)C(=O)O | -69
85 | COc1cc(OC)c(NC2=CC(=O)C(=O)c3ccccc32)cc1Cl | 20.6
86 | CC(NC(=O)CNC(=O)c1sc2ccccc2c1Cl)c1cccnc1 (stereo not drawn) | -16.6
87 | COc1ccc(-n2nc(C(=O)Nc3ccc(OC)c(OC)c3)c3c4ccccc4n(C)c3c2=O)cc1 | 7.41
